From publication PMC8440430 (Current biology : CB, 2021) come the findings set out here.

In the experiment the target is T1, GST-p31^comet (human, UniProt Q15013 1-274).
T1 sequence (looked up): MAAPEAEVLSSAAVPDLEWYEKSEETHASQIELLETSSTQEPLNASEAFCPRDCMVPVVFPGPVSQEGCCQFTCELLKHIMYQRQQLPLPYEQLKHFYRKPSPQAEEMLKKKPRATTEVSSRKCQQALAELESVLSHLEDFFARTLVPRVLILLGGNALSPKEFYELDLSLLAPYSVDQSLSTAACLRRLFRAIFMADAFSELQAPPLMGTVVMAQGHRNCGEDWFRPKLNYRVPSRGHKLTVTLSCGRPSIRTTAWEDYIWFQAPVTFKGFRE
The experiment is described as follows: pull-down.

B1: His6-RIT1 (natural protein)
chain: not shown
In the case of B1, the binding result is listed as “binds”.
